Target: T1, human Nav1.7 (human)
T1 construct: voltage-gated sodium channel Nav1.7 alpha subunit, human, Uniprot, full length, codon-optimized cDNA; Twin-Strep-tag and Flag-tag in tandem at the amino terminus; no tag cleavage is described; Sample contained cannabidiol (CBD) throughout; also called hNav1.7; α1 subunit; not shown: Twin-Strep-tag, N-terminal, kept; Flag, N-terminal, kept
Assay: cryo-EM structure; Nav1.7-β1-β2 co-expressed in HEK293F, purified through the Flag and Strep tags of Nav1.7 and SEC in 25 mM Tris-HCl pH 7.5, 150 mM NaCl, 0.02% GDN, 10 μM CBD; incubated with 100 μM CBD before grids; 2.8 Å
Details: both partners purified

binding result: binds
B1: β2 subunit (natural protein)
chain: not shown
notes: source: HEK293F, transiently co-transfected with Nav1.7 and β1, co-purified with Nav1.7
